In PubChem BioAssay AID1745845 (National Center for Advancing Translational Sciences (NCATS), 2022):
Screen size: about 360,000 compounds; about 2,600 (0.72%) were called active. The inconclusive results got no clear call from the source; some entries with a clear call stand among them for comparison. The call rests on the fitted dose curve; in most records, active means well fitted inhibition curve with a large enough effect; inconclusive means small, poorly fitted or top-dose-only effect; inactive means no such curve, though single readings can be large or run the other way. A potency beside an inconclusive call is a rough fit, not a confirmed value.

Assay: Primary qHTS for Inhibitors of ATXN expression; further: nearly all actives have a fitted effect of over 55% in size
Settings: HEK-293 ATXN2-luciferase reporter, luminescence, 24 h; series mostly up to 57 µM
In short: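 ATXN2-luciferase reporter cells (luciferase flanked by upstream and downstream ATXN2 gene portions) were treated 24 h at 37 °C with compounds at up to 57 uM. SteadyGlo luminescence gave expression; GF-AFC fluorescence gave viability.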
Potency means the concentration at half of the fitted maximal effect; tags describe the fitted curve by direction and shape.

Potency, inconclusive:
COc1cc(CNC(C)c2ccccc2)cc(Br)c1OCc1ccccc1 (centres undefined) 35.5 µM [inhibitor, single point]
Cc1ccc(C)c(NC(=O)c2cnn(-c3cccc(F)c3)c2C2CCN(C(=O)OC(C)(C)C)CC2)c1 31.6 µM [inhibitor, partial curve]
CC1(C)CC(NS(=O)(=O)OCC(Cl)(Cl)Cl)c2cc(C#N)ccc2O1 (centres undefined) 39.8 µM [inhibitor, single point]
COc1ccc(-c2c(-c3ccc(O)cc3O)n[nH]c2C)cc1 49.8 µM [inhibitor, partial curve]
COc1cc(OC)cc(-c2c(-c3cccs3)c3cc(-c4ccc(C(N)=O)cc4)ccc3n2C)c1 31.6 µM [inhibitor, single point]
COc1ccccc1NC(=O)Nc1nc(C(N)C(C)C)cs1 (centres undefined) 31.6 µM [inhibitor, single point]
O=C(Nc1cc2ccccc2oc1=O)c1ccccc1 15.8 µM [inhibitor, single point]
CCc1nc2ccccc2n1CCCCOc1ccc(C)cc1 35.5 µM [inhibitor, single point]
C=CCc1cccc(/C=N/NC(=O)C[n+]2ccccc2)c1O 31.6 µM [inhibitor, single point]
CCCCCn1c(SCCc2ccccc2)nc2c1c(=O)[nH]c(=O)n2C 39.8 µM [inhibitor, partial curve, poor fit]
N#Cc1ccc(-c2c(-c3ccccc3)ncc3cc(F)ccc23)cc1 39.8 µM [inhibitor, partial curve, poor fit]
Cc1ccccc1NCC(=O)N=Nc1c(O)[nH]c2ccc([N+](=O)[O-])cc12 39.8 µM [inhibitor, partial curve, poor fit]
COc1ccc(C(=O)C/C(=C\C(=O)c2ccc(C)cc2)c2ccccc2)cc1 25.1 µM [inhibitor, single point]
Cc1ccccc1N1CC(c2nc3ccccc3n2CCC2CCCCC2)CC1=O (centres undefined) 35.5 µM [inhibitor, single point]
O=C1CC(c2cc(Br)ccc2F)c2cc3c(cc2N1)CCC3 (centres undefined) 39.8 µM [inhibitor, single point]
Cc1ccc(CCNC(=O)CS(=O)Cc2nc(-c3cccc(C)c3)oc2C)cc1 (centres undefined) 12.6 µM [inhibitor, single point]
COc1ccc(C(c2nnnn2Cc2ccccc2)N2CCN(C/C=C/c3ccccc3)CC2)cc1 (centres undefined) 39.8 µM [inhibitor, single point]
CCOc1ccc(-c2nonc2NC(=O)COc2c(C)cc(C)cc2C)cc1OCC 39.8 µM [inhibitor, single point]
O=[N+]([O-])c1ccc(Sc2ccc(Cl)c(Cl)c2)nc1 20 µM [inhibitor, partial curve, poor fit]
O=S(=O)(N[C@H]1C[C@@H](NS(=O)(=O)OCC(Cl)(Cl)Cl)C2CCCCC21)OCC(Cl)(Cl)Cl (some centres undefined) 39.8 µM [inhibitor, single point]
CCNC(=O)c1c(NC(=O)C2COc3ccccc3O2)sc2c1CCCC2 (centres undefined) 25.1 µM [inhibitor, partial curve, poor fit]
Cc1cc(Nc2ccc3c(c2)OCCO3)c2cc(Cl)ccc2n1 20 µM [inhibitor, partial curve, poor fit]
CCc1cc(C(C)=NOCc2ccc(C3CCCCC3)c(C(F)(F)F)c2)ccc1CN1CC(C(=O)O)C1 13.7 µM [inhibitor, single point]
Cc1c[nH]c(C=C2C(=O)Nc3ccccc32)c1CCC(=O)O 30.6 µM [inhibitor, partial curve, poor fit]
Cc1cn([C@H](C(=O)NCCCCCCCCCCC(=O)N2CCN(C(=O)OC(C)(C)C)CC2)[C@@H](C)O)nn1 31.6 µM [inhibitor, single point]
CC(C)CCNC(=O)c1cnc2sc(N3CCCCC3)nn2c1=O 25.1 µM [inhibitor, partial curve, poor fit]
CCOc1ccccc1NC(=O)c1cc(SC)ccc1Cl 2.99 µM [inhibitor, partial curve, poor fit]

Potency, active:
CCOC(=O)/C(=C/c1ccc(N2CCC(c3ccccc3)=N2)cc1)C(C)=O 1.89 µM
CN1C=C/C(=C\c2cc[n+](C)c3ccccc23)c2ccccc21 8.44 µM
O=c1cnnc(N/N=C/c2ccccn2)[nH]1 1.78 µM

Potency, inactive:
COc1ccc(NC(=O)c2cn3c(nc4ccccc43)c(C#N)c2C)cc1
CCOC(=O)CNC(=O)Nc1nnc(-c2ccc(OCC)cc2)o1
Cc1c(Cc2ccccc2)c(NCCN(C)C)n2c(nc3ccccc32)c1C#N
CN(C(=O)c1cncc(Br)c1)c1c(N)n(Cc2ccccc2)c(=O)[nH]c1=O
CCCC(c1nnnn1Cc1ccc2c(c1)OCO2)N1CCC(C(N)=O)CC1 (centres undefined)
Cc1ccc(S(=O)(=O)N2CCC(C)CC2)cc1
O=C(C(=O)N1CCCCC1)c1cn(CC(=O)N2CCCCCC2)c2ccccc12
COc1ccc(OCc2cc(=O)c3ccc4c(c3o2)C=CC(C)(C)O4)cc1OC
CCOC(=O)CSC1=C(C#N)C(c2ccc(C)o2)CC(=O)N1 (centres undefined)
O=S(=O)(Nc1c(S(=O)(=O)c2ccccc2)c2nc3ccccc3nc2n1C1CCCCC1)c1ccccc1
CCOC(=O)COc1cccc2c(=O)n(CC(=O)NCc3ccc4c(c3)OCO4)ccc12
S=c1[nH]nc(C2CCCCC2)n1/N=C/c1cccc(Cl)c1Cl
Cc1ccc(Cl)cc1N1CCN(Cc2nc3c(c(=O)[nH]c(=O)n3C)n2Cc2ccccc2F)CC1
O=C(NCC(c1ccco1)N1CCCC1)c1cn(Cc2ccccc2)nc1-c1ccccc1 (centres undefined)
